Numbering of substitutions follows the chain as printed. In names and notes the source's numbering stands. No constants are given. Whether binding was seen depends on the method and setting. For part of these data: Binding seen in cells or lysates may run through a third protein. Some results given as binding are weak or reduced against the parent protein; the word gives no strength. For part of these data: Tags and fused reporters may be left off the sequences shown. Values belong to the binder of their own block, whether it stands above or below them.
Columns and labels:
[1] = molecular target: T1, Eps15 Homology Domain Protein 1 (EHD1), endogenous in HeLa cells (human (endogenous in HeLa)) (UniProt Q9H4M9); assay: co-IP; endogenous proteins in HeLa lysate (50 mM Tris pH 7.4, 100 mM NaCl, 0.5% Triton X-100); rabbit anti-EHD1 overnight at 4°C, Protein G Sepharose; blot with anti-EHD4, stripped and reblotted with anti-EHD1; beads-only control
T1 sequence: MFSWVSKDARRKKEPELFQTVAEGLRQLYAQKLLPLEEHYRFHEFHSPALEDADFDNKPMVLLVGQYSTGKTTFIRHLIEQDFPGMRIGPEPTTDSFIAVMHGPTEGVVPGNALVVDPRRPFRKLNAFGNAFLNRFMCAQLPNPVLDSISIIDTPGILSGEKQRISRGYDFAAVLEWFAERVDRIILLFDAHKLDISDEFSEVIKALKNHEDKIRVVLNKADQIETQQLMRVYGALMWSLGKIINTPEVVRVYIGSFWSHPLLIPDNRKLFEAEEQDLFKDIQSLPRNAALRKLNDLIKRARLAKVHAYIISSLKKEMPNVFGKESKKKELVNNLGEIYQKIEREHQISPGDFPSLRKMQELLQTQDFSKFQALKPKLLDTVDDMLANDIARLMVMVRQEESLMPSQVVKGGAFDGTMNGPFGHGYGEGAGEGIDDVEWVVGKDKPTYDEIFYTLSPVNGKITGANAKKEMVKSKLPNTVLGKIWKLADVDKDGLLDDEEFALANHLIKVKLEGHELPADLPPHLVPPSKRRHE

Sequences of proteins named here, by UniProt entry; tags and fusion partners are left off.
UniProt Q8N3F8: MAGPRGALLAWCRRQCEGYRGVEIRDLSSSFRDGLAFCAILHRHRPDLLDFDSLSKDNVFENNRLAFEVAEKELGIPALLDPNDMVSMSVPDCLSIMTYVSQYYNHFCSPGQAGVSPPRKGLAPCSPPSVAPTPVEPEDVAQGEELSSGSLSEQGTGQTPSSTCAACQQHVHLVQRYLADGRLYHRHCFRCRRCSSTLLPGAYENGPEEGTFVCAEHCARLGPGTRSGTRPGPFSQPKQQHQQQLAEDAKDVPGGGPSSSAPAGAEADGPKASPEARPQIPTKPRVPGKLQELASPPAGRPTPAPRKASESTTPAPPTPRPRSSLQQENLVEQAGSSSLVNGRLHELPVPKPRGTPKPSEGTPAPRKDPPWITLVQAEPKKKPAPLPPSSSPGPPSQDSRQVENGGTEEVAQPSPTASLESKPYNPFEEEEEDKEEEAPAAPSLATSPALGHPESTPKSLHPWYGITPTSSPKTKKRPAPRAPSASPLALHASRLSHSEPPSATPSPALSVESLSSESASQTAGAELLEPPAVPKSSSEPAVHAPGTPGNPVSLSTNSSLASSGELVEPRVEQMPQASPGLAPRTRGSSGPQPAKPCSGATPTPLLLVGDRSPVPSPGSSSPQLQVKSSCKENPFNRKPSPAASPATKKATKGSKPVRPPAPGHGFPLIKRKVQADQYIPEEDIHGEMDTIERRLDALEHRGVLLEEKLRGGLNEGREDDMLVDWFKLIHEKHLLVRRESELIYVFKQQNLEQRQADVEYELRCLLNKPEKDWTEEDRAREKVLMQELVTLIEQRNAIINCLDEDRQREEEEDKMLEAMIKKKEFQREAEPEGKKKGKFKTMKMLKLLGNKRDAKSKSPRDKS
UniProt Q9UNF0: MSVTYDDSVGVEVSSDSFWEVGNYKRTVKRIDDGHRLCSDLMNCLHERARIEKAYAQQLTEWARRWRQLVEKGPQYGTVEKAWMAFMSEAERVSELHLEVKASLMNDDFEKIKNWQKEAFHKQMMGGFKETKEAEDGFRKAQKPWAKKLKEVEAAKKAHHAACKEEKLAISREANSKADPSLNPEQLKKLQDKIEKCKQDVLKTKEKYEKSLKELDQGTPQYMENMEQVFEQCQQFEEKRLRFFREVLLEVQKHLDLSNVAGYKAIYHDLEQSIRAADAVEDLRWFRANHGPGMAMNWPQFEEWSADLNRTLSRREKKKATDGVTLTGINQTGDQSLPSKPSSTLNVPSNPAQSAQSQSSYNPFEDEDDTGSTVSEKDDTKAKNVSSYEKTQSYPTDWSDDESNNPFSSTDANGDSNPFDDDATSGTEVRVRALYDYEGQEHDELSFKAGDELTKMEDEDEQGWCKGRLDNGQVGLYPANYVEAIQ

[2] = molecular target: MICAL-L1, yeast two-hybrid fusion (UniProt Q8N3F8); assay: two-hybrid; AH109 yeast co-transformed with pGADT7 and pGBKT7 fusions; growth on -His plates, 30°C, 72 h
[3] = molecular target: T2, EHD1, endogenous in NIH3T3 cells (mouse (endogenous in NIH3T3)) (UniProt Q9WVK4); assay: co-IP; endogenous proteins in lysates of NIH3T3 parental cells and CRISPR/Cas9 EHD4 knock-out cells; anti-EHD1 coupled beads; blot with anti-Rabenosyn-5 and anti-EHD1; beads-only control
T2 sequence: T1 sequence with P350S, V408A, V526I

[4] = molecular target: T3, EHD1 aa1-309, yeast two-hybrid fusion (UniProt Q9H4M9); assay: two-hybrid; AH109 yeast co-transformed with pGADT7 and pGBKT7 fusions; growth on -His plates, 30°C, 72 h
T3 sequence: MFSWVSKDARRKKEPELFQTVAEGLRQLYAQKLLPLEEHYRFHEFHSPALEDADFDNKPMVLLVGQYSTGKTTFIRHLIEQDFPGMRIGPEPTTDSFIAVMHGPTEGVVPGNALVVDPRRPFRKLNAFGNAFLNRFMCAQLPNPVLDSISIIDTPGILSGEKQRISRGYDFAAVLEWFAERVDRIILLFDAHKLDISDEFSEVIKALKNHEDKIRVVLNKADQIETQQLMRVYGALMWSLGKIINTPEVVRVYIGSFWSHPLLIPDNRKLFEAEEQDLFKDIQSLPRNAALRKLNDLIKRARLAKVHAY

[5] = molecular target: T4, EHD1 aa1-439, yeast two-hybrid fusion (UniProt Q9H4M9); assay: as above
T4 sequence: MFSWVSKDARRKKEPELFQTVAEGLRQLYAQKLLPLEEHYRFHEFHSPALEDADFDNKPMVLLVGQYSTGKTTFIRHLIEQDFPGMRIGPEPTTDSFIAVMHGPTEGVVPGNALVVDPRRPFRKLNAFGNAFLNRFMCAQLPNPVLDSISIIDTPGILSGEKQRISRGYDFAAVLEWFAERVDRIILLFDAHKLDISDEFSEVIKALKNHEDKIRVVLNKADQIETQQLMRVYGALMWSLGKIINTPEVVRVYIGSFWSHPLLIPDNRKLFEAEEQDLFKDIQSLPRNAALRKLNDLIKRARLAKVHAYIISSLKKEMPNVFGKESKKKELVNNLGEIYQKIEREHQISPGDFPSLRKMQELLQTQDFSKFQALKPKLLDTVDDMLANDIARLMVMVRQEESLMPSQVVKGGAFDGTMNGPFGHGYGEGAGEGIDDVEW

[6] = molecular target: T5, EHD1 V203P, yeast two-hybrid fusion (UniProt Q9H4M9); assay: as above
T5 sequence: T1 sequence with V203P

[7] = molecular target: T6, EHD1 aa1-199, yeast two-hybrid fusion (UniProt Q9H4M9); assay: as above
T6 sequence: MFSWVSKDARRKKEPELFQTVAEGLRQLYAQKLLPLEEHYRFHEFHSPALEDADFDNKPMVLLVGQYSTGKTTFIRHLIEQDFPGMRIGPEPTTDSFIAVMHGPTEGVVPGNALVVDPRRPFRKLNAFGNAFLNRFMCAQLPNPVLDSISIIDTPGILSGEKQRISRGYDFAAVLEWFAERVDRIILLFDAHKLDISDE

[8] = molecular target: Syndapin2, yeast two-hybrid fusion (UniProt Q9UNF0); assay: as above
[9] = molecular target: T7, EHD1, yeast two-hybrid fusion (UniProt Q9H4M9); assay: as above
T7 sequence: T1 sequence

binding [1]: binds
B1: Eps15 Homology Domain Protein 4 (EHD4), endogenous in HeLa cells (protein, UniProt Q9H223 1-541)
chain: MFSWMGRQAGGRERAGGADAVQTVTGGLRSLYLRKVLPLEEAYRFHEFHSPALEDADFENKPMILLVGQYSTGKTTFIRYLLEQDFPGMRIGPEPTTDSFIAVMYGETEGSTPGNALVVDPKKPFRKLSRFGNAFLNRFMCSQLPNQVLKSISVIDSPGILSGEKQRISRGYDFCQVLQWFAERVDRIILLFDAHKLDISDEFSEAIKAFRGQDDKIRVVLNKADQVDTQQLMRVYGALMWSLGKVINTPEVLRVYIGSFWAQPLQNTDNRRLFEAEAQDLFRDIQSLPQKAAVRKLNDLIKRARLAKVHAYIISYLKKEMPSVFGKENKKRELISRLPEIYIQLQREYQISAGDFPEVKAMQEQLENYDFTKFHSLKPKLIEAVDNMLSNKISPLMNLISQEETSTPTQLVQGGAFDGTTEGPFNQGYGEGAKEGADEEEWVVAKDKPVYDELFYTLSPINGKISGVNAKKEMVTSKLPNSVLGKIWKLADCDCDGMLDEEEFALAKHLIKIKLDGYELPSSLPPHLVPPSHRKSLPKAD

binding [3]: binds
B5: Rabenosyn-5, endogenous in NIH3T3 cells (protein, UniProt Q80Y56 1-783)
chain: MASLDDPGEVREGFLCPLCLKDLQSFYQLQSHYEEEHLEDRDVKGQIKNLVQKARKAKNKLLKREGDDRVEPGTQGYESFSYGGVDPYMWEPQELGAMRSHLSDFKKHRAARIDHYVVEVNKLIIRLEKLTAFDRTNTETSKIRAIEKSVVPWVNDQDVPFCPDCGNKFSIRNRRHHCRLCGSIMCKKCMELIGLPLAHKLTSASKDSLSTHTSPSQSPNSVHGSRRGSISSMSSVSSVLDEKDDDRIRCCTHCKDKLLKREQQMDEKEHTPDIVKLYEKLRLCMEKVDQKAPEYIRMAASLNAGETTYNLEHANDLRVEVQKVYELIDALSKKILTLGLNQDPSPHPNTLRLQRMIRYSATLFVQEKLLGLMSLPTKEQFEELKKKRKQDLEQKRTVERQAALESRRKLEERQSGLASHTANGDVRSLRGIPPPLRKAEGWLPLSEGQGQSEDPDPLLQQIYNITSFIRQAKAAGRTDEVRTLQENLRQLQDEYDQQQTEKAIELSRKQAEEEELQREQLQMLRKRELEREQEQFLAASLQTRTRVLELREVIPFQLEASRGPHIDLSYSLDQDSSPVQSSTAPDILTPGSALAPMHLWSGPPALGQETLPQSTMSQQSDKASLNPFDEDDLSSPTEGAISPAAVEAFLGPPAAVTKEYNPFEEDAEEEEVAELGAGNPFTDPDSPAPNPFDEDDGPRPASPAAPGNPFEECPSTNPFEVDSDSGMEAEEHIEEELLLQQIDNIKAYIFDAKQCGRMDEVEVLTENLRELKCTLAKQKGAPN

More lines, now with the values behind:

B2: EHD4 S523D, yeast two-hybrid fusion (protein, UniProt Q9H223 1-541)
chain: B1 chain with S523D
binding [2]: no binding

B3: EHD4 S522A, yeast two-hybrid fusion (protein, UniProt Q9H223 1-541)
chain: B1 chain with S522A
binding [2]: no binding

B4: EHD4 SS522AD, yeast two-hybrid fusion (protein, UniProt Q9H223 1-541)
chain: B1 chain with S522A, S523D
binding [2]: no binding

B6: EHD1, yeast two-hybrid fusion (protein, UniProt Q9H4M9 1-534)
chain: T1 sequence
binding [4]: no binding
binding [5]: binds
binding [6]: binds
binding [2]: binds
binding [7]: no binding
binding [8]: binds
binding [9]: binds

From publication PMC7511005
